Measurements as given in article PMC4336329 (PLoS ONE, 2015).
Hit rate of the full screen: of about 310,000 compounds, about 2,200 (0.71%) showed an effect of 50% or more. The effect is printed as a negative number. The list shows a part of the results.

molecular target: human ether-à-go-go-related gene (hERG) potassium channel (human, UniProt Q12809); assay: primary screen, population patch clamp on CHO cells stably expressing hERG
Sequence (Q12809 whole entry, looked up): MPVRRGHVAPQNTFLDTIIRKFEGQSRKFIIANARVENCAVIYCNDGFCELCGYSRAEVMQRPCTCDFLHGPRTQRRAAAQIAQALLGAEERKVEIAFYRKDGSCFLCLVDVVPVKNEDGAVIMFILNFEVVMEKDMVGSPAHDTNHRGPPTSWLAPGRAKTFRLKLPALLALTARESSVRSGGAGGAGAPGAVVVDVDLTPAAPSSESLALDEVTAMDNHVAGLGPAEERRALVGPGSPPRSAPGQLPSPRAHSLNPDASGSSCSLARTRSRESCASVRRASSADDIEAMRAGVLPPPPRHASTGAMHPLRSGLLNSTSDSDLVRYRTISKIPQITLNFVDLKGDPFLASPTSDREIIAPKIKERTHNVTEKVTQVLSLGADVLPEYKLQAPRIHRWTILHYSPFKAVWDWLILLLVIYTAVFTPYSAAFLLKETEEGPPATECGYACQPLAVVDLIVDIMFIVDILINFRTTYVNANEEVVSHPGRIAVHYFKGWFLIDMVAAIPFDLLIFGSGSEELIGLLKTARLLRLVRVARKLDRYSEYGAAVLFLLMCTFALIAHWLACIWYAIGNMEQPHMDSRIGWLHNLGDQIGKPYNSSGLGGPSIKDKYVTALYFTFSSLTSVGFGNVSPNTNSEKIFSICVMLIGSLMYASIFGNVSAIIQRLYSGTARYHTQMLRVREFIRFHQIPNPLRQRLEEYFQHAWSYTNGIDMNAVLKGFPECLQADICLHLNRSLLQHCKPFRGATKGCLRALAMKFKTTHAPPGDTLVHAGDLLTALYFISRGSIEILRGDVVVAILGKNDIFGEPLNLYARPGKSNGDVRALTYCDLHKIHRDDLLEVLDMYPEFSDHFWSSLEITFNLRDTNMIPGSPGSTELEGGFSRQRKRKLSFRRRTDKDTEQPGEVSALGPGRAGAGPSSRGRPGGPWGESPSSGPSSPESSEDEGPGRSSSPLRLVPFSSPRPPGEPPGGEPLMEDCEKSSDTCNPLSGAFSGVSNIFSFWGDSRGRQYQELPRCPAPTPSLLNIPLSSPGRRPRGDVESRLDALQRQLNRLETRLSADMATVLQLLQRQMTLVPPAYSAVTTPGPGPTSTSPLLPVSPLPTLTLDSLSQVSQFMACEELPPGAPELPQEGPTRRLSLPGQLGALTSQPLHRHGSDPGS

| SMILES | hERG current change (%, negative = inhibition) at 1uM [%] |
| --- | --- |
| COc1cc(/C=N/NC(N)=O)c(Br)cc1OCC(=O)Nc1ccccc1C | 0.504 |
| Cc1ccc(OCC(=O)Nc2ccc(F)cc2)cc1C | 11.3 |
| COc1ccc(N=C2C(=O)Nc3ccccc32)cc1 | -7.5 |
| NC(=O)c1c(NC(=S)Nc2ccccc2)sc2c1CCCC2 | 21.1 |
| CCOC(=O)c1sc2c(c1C)c(=O)c(C(=O)OCC)cn2CC | 13.9 |
| Cn1c(=O)oc2cc(S(=O)(=O)NCCC(=O)NCCc3ccccc3)ccc21 | 11.8 |
| CCOC(=O)c1cc2cc(OCc3ccccc3)ccc2nc1C | 8.83 |
| CCOc1ccc(N(CC(=O)N/N=C/c2cccnc2)S(C)(=O)=O)cc1 | 12.9 |
| NS(=O)(=O)c1ccc(NC(=O)/C=C/c2ccc3c(c2)OCO3)cc1 | 19 |
| COc1ccc(Cc2nc3ccc(C(=O)NCc4cc(C)no4)cc3o2)cc1 | 17.8 |
| Cc1ccc(CN2CCC(n3nccc3NC(=O)C3CCOC3)CC2)cc1 (stereo not shown) | 4.04 |
| CCCNC(=O)c1cc(-c2ccc3c(c2)OCO3)on1 | 14.5 |
| CC1=C(C#N)C(=O)N(C)C(C)(C)C1 | 4.64 |
| CC(NC(=O)c1ccccc1)C(=O)N/N=C/c1ccc(O)cc1 (stereo not shown) | 13.5 |
| COc1ccc(NS(=O)(=O)c2ccc(O)c(C(=O)OCC(=O)N3CCCCC3)c2)cc1 | 12.4 |
| CCOC(=O)c1ccc(N(CC(=O)NCC2CCCO2)C(=O)CCC(=O)Nc2cc(C)on2)cc1 (stereo not shown) | 16.9 |
| CCN1CCN(c2nc(-c3ccccc3)c3ccccc3n2)CC1 | -30.1 |
| CCOc1ncccc1C(=O)NCCc1ccc(Cl)cc1 | 7.04 |
| Cc1ccc2nc(-c3ccc(Br)cc3)cn2c1 | 10.6 |
| Cc1cc2n(n1)SC(Nc1ccc(F)c(Cl)c1)N2 (stereo not shown) | -9.15 |

| SMILES | hERG current change (%, negative = inhibition) at 1uM [%] |
| --- | --- |
| O=C(NC1CCCCC1)NC1C2CC3CC(C2)CC1C3 (stereo not shown) | 7.9 |
| COc1ccccc1NC(=O)C1=C(C)Nc2nc(-c3cccs3)nn2C1c1cccc(O)c1 (stereo not shown) | -9.47 |
| CCCn1cnc2c(=S)nc(N)[nH]c21 | 11.4 |
| CC(=O)N1CCN(CC(=O)Nc2ccccc2Sc2ccc(Cl)cc2)CC1 | -58.3 |
| CN(CC(=O)O)S(=O)(=O)c1cccs1 | 7.4 |
| CC(Cc1n[nH]c(=S)o1)c1ccccc1 (stereo not shown) | 4.48 |
| CC(=O)N(C(C)=O)C1=C(C#N)C2(CCCCC2)Cc2ccccc21 | 13.7 |
| CC1(C)Cc2nc3[nH]c(=S)[nH]c(=O)c3cc2CO1 | 12.8 |
| Cn1nccc1/C=C(/C#N)S(=O)(=O)c1ccccc1 | 9.69 |
| CCN(CC)CCCNC(=O)c1cc(Sc2nnc(C)s2)nc2ccccc12 | -3.89 |
| Cc1nc(C(=O)Nc2cccc(Cl)c2)nn1-c1cc(OC(C)C)c(Cl)cc1Cl | -2.08 |
| COCCN(C(=O)c1ccco1)c1nc(-c2ccccc2)cs1 | 14.6 |
| CCNC(=O)O/N=C(\C)c1sc(-c2ccc(Cl)cc2)nc1C | 8.65 |
| CCC1(C)Cc2nc3[nH]c(=S)n(-c4ccc(C)cc4)c(=O)c3cc2CO1 (stereo not shown) | 3.23 |
| Cc1c(C(=O)NCCCN2CCCC2=O)oc2ccc(S(=O)(=O)N3CCOCC3)cc12 | 3.33 |
| COc1ccc(/C=C/C(=O)C(C)(C)C)cc1OC | 3.36 |
| O=C(Cn1nnc(-c2ccncc2)n1)N(C1CCCCC1)C1CCCCC1 | -0.302 |
| COc1ccc(NC(=O)C(OC(=O)c2cnccn2)c2ccccc2)cc1Cl (stereo not shown) | 11.7 |
| O=C(NCCN1CCCCC1)c1ccc(=O)oc1 | -2.96 |
| C=CCOCCN1C(=O)C2C(c3ccccc3)C=CC(c3ccccc3)C2C1=O (stereo not shown) | 8.51 |

| SMILES | hERG current change (%, negative = inhibition) at 1uM [%] |
| --- | --- |
| Cc1ccc(-c2nnc(SCC(=O)N3c4ccccc4NC(=O)C3(C)C)n2N)cc1 | 6.71 |
| CCOC(=O)c1c(N)sc(C(=O)N2CCCCCC2)c1C | 12.9 |
| CCC(=O)Nc1sc(C(=O)Nc2ccccc2)c(C)c1C(=O)OC | -0.0995 |
| CCCCNCC#CCOc1cc(C)ccc1C(C)C.O=C(O)C(=O)O | 27.6 |
| C=CCc1c(C)nc(C)nc1N/N=C/c1ccc(F)cc1 | -1.18 |
| Cc1cc(-c2ccccc2)nc(N2CCN(c3ccccn3)CC2)n1 | 3.43 |
| CCOc1cc(C2Nc3ccccc3NC3=C2C(=O)CC(C)(C)C3)ccc1O (stereo not shown) | 14.4 |
| N=c1oc2ccccc2cc1C(=O)Nc1ccccc1 | 12.9 |
| COc1ccc(/C=N/NC(=O)c2ccc(N)cc2)cc1Cn1cc([N+](=O)[O-])cn1 | -2.01 |
| CC(=O)c1ccc(C(=O)Nc2sc3c(c2C(N)=O)CCN(Cc2ccccc2)C3)cc1.Cl | 2.21 |
| COC(=O)[C@H](CCSC)NC(=O)Cn1ccc(NC(=O)OCc2ccccc2)nc1=O | 12.5 |
| COc1ccccc1-c1c(C)nn2c(N)c(-c3ccccc3)cnc12 | 9.37 |
| Cn1c(CN2CCN(C(=O)COc3ccccc3)CC2)nc2cc([N+](=O)[O-])ccc21 | -4.22 |
| CC(=O)c1cccc([N+](=O)[O-])c1 | 21.3 |
| Cc1ccc(N(C)S(=O)(=O)c2cccc(C(=O)Oc3ccc4c(C)cc(=O)oc4c3)c2)cc1 | 16.2 |
| Cc1ccc(NC(=O)[C@H](C)NC(=O)C2CCN(C(=O)[C@@H](N)CC(C)C)CC2)cc1.Cl | 8.63 |
| O=C(Nc1cccc(C(=O)O)c1)/C(=C/c1ccccc1)NC(=O)c1cccc(Br)c1 | 7.88 |
| O=C(CCl)N1c2ccccc2CCc2ccccc21 | 11.6 |
